# From the supplement of paper PMC8728848
# This is one part of the list.
# B1: CC1G-11630 (Coprinopsis cinerea), A8P462 (protein)
# chain: MTTEAKIKLKAVVYWELVFDYDNSSNTGEITQSYTVKISQTSTRSTFASEVSTTTIDTLTKNNQEVDVGASYGAISANVSASWEHSEEVNNMLEKTTQTSTEDTYTVETEETRSYTIGPGGMLSLFQKHFSGPGMHVAFDVFTTDLELAKERTEIDIDVDVEAIRFVREIRVVYTDIMSEAPGDHVREINGKNPDINYGFNGKFVWLVPEQTRKTAQALTNVEFVSQAESDDRYWDLAAGAGGSNRYLIPVYDTNNKDKIYELALWRSDSYITHDKVKAAGWSGTTGDINSGRGGTYLNLVWKTRHAY
# Key:
# Assay in all cases: glycan array binding signal (z-score within array); higher = stronger binding
# Settings in all cases: glycan notation: IUPAC condensed, linker removed
# [1] = molecular target: Gal(b1-4)GlcNAc(b1-2)Man(a1-3)[Gal(b1-4)GlcNAc(b1-2)Man(a1-6)]Man(b1-4)GlcNAc(b1-4)GlcNAc
# Outline: (§1)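 Negative Z-scores can be read as non-binding. The Z-score is calculated within each array and then averaged across arrays of one protein sequence at different concentrations or buffers and across linkers. Arrays, 3228 in all, were curated from the Consortium for Functional Glycomics database and kept only where the protein sequence was available.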
# [2] = molecular target: Gal(b1-4)GlcNAc(b1-2)Man(a1-3)[Gal(b1-4)GlcNAc(b1-2)Man(a1-6)]Man(b1-4)GlcNAc(b1-4)[Fuc(a1-6)]GlcNAc
# Outline: as §1
# [3] = molecular target: Gal(b1-4)GlcNAc(b1-2)Man(a1-3)[Gal(b1-4)GlcNAc(b1-2)Man(a1-6)][Gal(b1-4)GlcNAc(b1-4)]Man(b1-4)GlcNAc(b1-4)[Fuc(a1-6)]GlcNAc
# Outline: as §1
# [4] = molecular target: Gal(b1-4)GlcNAc(b1-2)Man(a1-3)[Gal(b1-4)GlcNAc(b1-2)Man(a1-6)][GlcNAc(b1-4)]Man(b1-4)GlcNAc(b1-4)[Fuc(a1-6)]GlcNAc
# Outline: as §1
# [5] = molecular target: Gal(b1-4)GlcNAc(b1-2)Man(a1-3)[GlcNAc(b1-2)Man(a1-6)]Man(b1-4)GlcNAc(b1-4)GlcNAc
# Outline: as §1
# [6] = molecular target: Gal(b1-4)GlcNAc(b1-2)Man(a1-3)[GlcNAc(b1-4)][Gal(b1-4)GlcNAc(b1-2)Man(a1-6)]Man(b1-4)GlcNAc(b1-4)GlcNAc
# Outline: as §1
# [7] = molecular target: Gal(b1-4)GlcNAc(b1-2)Man(a1-3)[Man(a1-6)]Man(b1-4)GlcNAc(b1-4)GlcNAc
# Outline: as §1
# [8] = molecular target: Gal(b1-4)GlcNAc(b1-2)Man(a1-6)Man(b1-4)GlcNAc(b1-4)GlcNAc
# Outline: as §1
# [9] = molecular target: Gal(b1-4)GlcNAc(b1-2)Man(a1-6)[GlcNAc(b1-2)Man(a1-3)]Man(b1-4)GlcNAc(b1-4)GlcNAc
# Outline: as §1
# [10] = molecular target: Gal(b1-4)GlcNAc(b1-2)Man(a1-6)[Man(a1-3)]Man(b1-4)GlcNAc(b1-4)GlcNAc
# Outline: as §1
# [11] = molecular target: Gal(b1-4)GlcNAc(b1-2)[Gal(b1-4)GlcNAc(b1-4)]Man(a1-3)[Gal(b1-4)GlcNAc(b1-2)Man(a1-6)]Man(b1-4)GlcNAc(b1-4)GlcNAc
# Outline: as §1
# [12] = molecular target: Gal(b1-4)GlcNAc(b1-2)[Gal(b1-4)GlcNAc(b1-4)]Man(a1-3)[Gal(b1-4)GlcNAc(b1-2)[Gal(b1-4)GlcNAc(b1-6)]Man(a1-6)]Man(b1-4)GlcNAc(b1-4)GlcNAc
# Outline: as §1
# [13] = molecular target: Gal(b1-4)GlcNAc(b1-2)[Gal(b1-4)GlcNAc(b1-4)]Man(a1-3)[GlcNAc(b1-4)][Gal(b1-4)GlcNAc(b1-2)Man(a1-6)]Man(b1-4)GlcNAc(b1-4)GlcNAc
# Outline: as §1
# [14] = molecular target: Gal(b1-4)GlcNAc(b1-2)[Gal(b1-4)GlcNAc(b1-4)]Man(a1-3)[GlcNAc(b1-4)][Gal(b1-4)GlcNAc(b1-2)[Gal(b1-4)GlcNAc(b1-6)]Man(a1-6)]Man(b1-4)GlcNAc(b1-4)GlcNAc
# Outline: as §1
# [15] = molecular target: Gal(b1-4)GlcNAc(b1-2)[Gal(b1-4)GlcNAc(b1-6)]Man(a1-6)[Gal(b1-4)GlcNAc(b1-2)Man(a1-3)]Man(b1-4)GlcNAc(b1-4)GlcNAc
# Outline: as §1
# [16] = molecular target: Gal(b1-4)GlcNAc(b1-2)[Gal(b1-4)GlcNAc(b1-6)]Man(a1-6)[Gal(b1-4)GlcNAc(b1-2)Man(a1-3)]Man(b1-4)GlcNAc(b1-4)[Fuc(a1-6)]GlcNAc
# Outline: as §1
# [17] = molecular target: Gal(b1-4)GlcNAc(b1-2)[Gal(b1-4)GlcNAc(b1-6)]Man(a1-6)[GlcNAc(b1-4)][Gal(b1-4)GlcNAc(b1-2)Man(a1-3)]Man(b1-4)GlcNAc(b1-4)GlcNAc
# Outline: as §1
# [18] = molecular target: Gal(b1-4)GlcNAc(b1-2)[Gal(b1-4)GlcNAc(b1-6)]Man(a1-6)[GlcNAc(b1-4)][Gal(b1-4)GlcNAc(b1-2)[Gal(b1-4)GlcNAc(b1-4)]Man(a1-3)]Man(b1-4)GlcNAc(b1-4)[Fuc(a1-6)]GlcNAc
# Outline: as §1
# [19] = molecular target: Gal(b1-4)GlcNAc(b1-3)Gal(b1-3)GalNAc
# Outline: as §1
binder,measurement,setting,value
B1,glycan array binding signal (z-score),[1],-0.378
same,glycan array binding signal (z-score),[2],-0.324
same,glycan array binding signal (z-score),[3],-0.593
same,glycan array binding signal (z-score),[4],-0.467
same,glycan array binding signal (z-score),[5],-0.5
same,glycan array binding signal (z-score),[6],-0.354
same,glycan array binding signal (z-score),[7],-0.035
same,glycan array binding signal (z-score),[8],-0.208
same,glycan array binding signal (z-score),[9],-0.325
same,glycan array binding signal (z-score),[10],-0.474
same,glycan array binding signal (z-score),[11],-0.738
same,glycan array binding signal (z-score),[12],-0.449
same,glycan array binding signal (z-score),[13],-0.074
same,glycan array binding signal (z-score),[14],0.277
same,glycan array binding signal (z-score),[15],0.272
same,glycan array binding signal (z-score),[16],-0.458
same,glycan array binding signal (z-score),[17],-0.647
same,glycan array binding signal (z-score),[18],-0.51
same,glycan array binding signal (z-score),[19],-0.343
